The source of these data is the RNAGym collection of RNA variant scans (doi:10.7554/elife.90254).

To fix the notation:
B1: LINE1-mini (parent)
chain: GGCAGAGCUCAACACAGCGUGGCAAAGUGGCUGUGGCUAGACUGCC

The source gives no read counts; variants with many changes may rest on few reads.

This data set covers variants of B1. Description: self-cleavage, relative activity (ratio to wild type); higher = more cleavage; in vitro, sequencing; the parent is a self-cleaving ribozyme.
Turning to A4C A12G G33U C45U, the self-cleavage was determined as 0.29.

Consider C10A G21C A26U G30U, for which the self-cleavage came to 0.02.

With A6U G40U C42A U43A, the self-cleavage came out at 0.45.

Turning to G2U A14C G30U, the self-cleavage was 0.04.

With C3G G30C G33C C37U, the self-cleavage turned out to be 0.06.

Turning to C8G A16G G21A U43C, the self-cleavage is 0.01.

As for U34C C45G C46U, the self-cleavage worked out at 0.06.

For G5U A24U C31G, the self-cleavage turned out to be 0.03.

In the case of C8U G29U G30C G40A, the self-cleavage worked out at 0.04.

With G7C C13U G35A, the self-cleavage worked out at 0.22.

Regarding A4U G7A A11G, the self-cleavage was found to be 0.03.

For the variant C31U G35C A41C, the self-cleavage was found to be 0.03.

Turning to G1C U20C A24G G29A G33A, the self-cleavage turned out to be 0.02.

Consider G1U G5U G22U G27A U38G, for which the self-cleavage worked out at 0.01.

For the variant G17A G21C A25C G27A G33A, the self-cleavage came out at 0.17.

With G5U C13U A25U G35U C45G, the self-cleavage came to 0.01.

G2U G21U C37A A39U: the self-cleavage came out at 0.02.

On to A24C G36C A41U C46G, for which the self-cleavage came to 0.07.

As for C23G C31U G44C, the self-cleavage turned out to be 0.05.

Consider G1U G22C A25U, for which the self-cleavage came out at 0.24.

With A4G G7U G36U, the self-cleavage turned out to be 0.05.

Take A6C C8A A16C G17A C31U: the self-cleavage came to 0.07.

With U9A U20C C37G, the self-cleavage is 0.02.

On to G21U C23U U38G, for which the self-cleavage amounted to 0.04.

Take G1A G33C C37A G40U G44A: the self-cleavage was 0.08.

For A14G G29A G33U, the self-cleavage was 0.05.

On to G7U U20A U28A A39G, for which the self-cleavage is 0.02.

As for G2U A11G G29U, the self-cleavage was 0.01.

For the variant G2C U38A C45A, the self-cleavage turned out to be 0.06.

As to A4C C37A C46U, the self-cleavage worked out at 0.19.

With G22A C23U C45U, the self-cleavage came out at 1.08.

Regarding G2U U9A U28A, the self-cleavage came to 0.02.

C18U G22U G29U C37G: the self-cleavage was found to be 0.01.

Regarding U9G A14C G19C G21A C37A A41U G44U, the self-cleavage amounted to 0.07.

Regarding A6C A16G G29U, the self-cleavage stood at 0.56.

G1A A4U C15U G21C C42U G44A: the self-cleavage turned out to be 0.09.

As to G5C A14G C15G U28G G33C U38C, the self-cleavage was 0.02.

In the case of G2C C8G U20C C37G, the self-cleavage stood at 0.01.

Consider G2A C3A G7U C15A G35C, for which the self-cleavage worked out at 0.5.

For the variant G27U U32G C46A, the self-cleavage is 0.04.

For the variant A11G A12U C18G G33U, the self-cleavage amounted to 0.01.

On to C13U C15G C18G, for which the self-cleavage turned out to be 0.

Turning to G2A A24G G33C G36C C42A, the self-cleavage is 0.03.

Turning to G1A C8U G17U U28C G35U G36C, the self-cleavage was found to be 0.19.

In the case of C3G C42G U43G, the self-cleavage is 0.07.

In the case of G2U A4U G27U G36A, the self-cleavage turned out to be 0.18.

Turning to U9A C10U A16C C18A A41G, the self-cleavage was 0.03.

As to G7C C10G A24G G36A, the self-cleavage was found to be 0.03.

With U9A A12G G17U G22C G35A G36A, the self-cleavage came to 0.06.

Take A14G C15G C23G U28G A41C: the self-cleavage is 0.1.

For C8U A14U C31U U38C, the self-cleavage stood at 0.05.

For G7C G27C U32A, the self-cleavage was determined as 0.2.

G5U G22U U32G: the self-cleavage came out at 0.12.

On to G29A G33A U34G G36C, for which the self-cleavage worked out at 0.05.

With A12U G30A A41U, the self-cleavage worked out at 0.1.

As for G35U C37U C45A, the self-cleavage is 0.04.

As for A4U A12U C15A U32G, the self-cleavage was 0.03.

Take A4U G5A A12U A26G: the self-cleavage worked out at 0.13.

With G2C C8A C37U, the self-cleavage stood at 0.03.

Consider A24C C31A U43A, for which the self-cleavage is 0.05.

In the case of A14U G36C U43A, the self-cleavage was 0.09.

For G2U A12C C18G U34C, the self-cleavage came to 0.

Regarding A12G G17U C42G, the self-cleavage was 0.1.

In the case of G27U U32C U34C, the self-cleavage is 0.06.

Take G19A A24C G33A: the self-cleavage is 0.04.

A12G A16C C31A G35U C46U: the self-cleavage was determined as 0.04.

G19C G27U G29U G40U: the self-cleavage stood at 0.13.

For the variant G1U C18G G21A C46A, the self-cleavage came to 0.14.

On to C10G A25G C37U, for which the self-cleavage was 0.03.

As for C8A U34G G35U, the self-cleavage was 0.08.

As for C18U C23A G27U, the self-cleavage amounted to 1.06.

For the variant C3U C13G G33U G35A, the self-cleavage came out at 0.06.

In the case of A4C C8U C31A, the self-cleavage amounted to 0.42.

On to G1A C3U A6C A14U C18A, for which the self-cleavage is 0.08.

C8G G17A C18U A41U: the self-cleavage worked out at 0.01.

On to G7A A25G G44U, for which the self-cleavage came to 0.12.

As to C3A C8U A11U A12U C15G A16C G36U, the self-cleavage worked out at 0.04.

With G5C U34G C37A, the self-cleavage came to 0.04.

Regarding A11G G19C C23A, the self-cleavage stood at 0.02.

With G29A G33U C46A, the self-cleavage came out at 0.05.

As to C3G A16G U20G G30C, the self-cleavage is 0.13.

With A4U C8G U28C G36A, the self-cleavage stood at 0.01.

Regarding G7U C10U G21C, the self-cleavage amounted to 0.04.

Regarding A25C U28A U43A, the self-cleavage turned out to be 0.01.

For the variant G5U A6C C8G C10U A11G G35C U43A, the self-cleavage turned out to be 0.01.

Regarding G17C C18G G29U, the self-cleavage was 0.03.

On to C3A A4U C10A G17A A24U G29U G30A U43A, for which the self-cleavage came to 0.04.

C8A A12C G19A G29U: the self-cleavage was 0.01.

In the case of G1A C3U G7C C18G U28A U34G, the self-cleavage amounted to 0.38.

A12C U43A C45A: the self-cleavage was 0.02.

G27C C37U C42U: the self-cleavage worked out at 0.05.

Turning to G5C C10G G27U C37U A39C, the self-cleavage stood at 0.01.

In the case of A11U C15A C23U, the self-cleavage was found to be 0.04.

With A4U U38A U43C, the self-cleavage turned out to be 0.

On to U9A A14U G17C G30U G36A, for which the self-cleavage is 0.07.

Turning to A25U G27A U28A C31A, the self-cleavage stood at 0.81.

Regarding A12U U20C A25U U32G, the self-cleavage was 0.01.

Turning to U28A G29U G44C, the self-cleavage was determined as 0.08.

Turning to U32C C37A C46U, the self-cleavage came to 0.06.

A26C G35C G40U: the self-cleavage amounted to 0.04.

Regarding G5C A11U G29U C46G, the self-cleavage is 0.04.

With C15G U20A A26G C37U C42U, the self-cleavage turned out to be 0.01.

Turning to C10A A11U U28A, the self-cleavage turned out to be 0.01.

Consider G5A C10A C13A C23U G27U C37U, for which the self-cleavage is 0.01.

As for U9C C10A C46G, the self-cleavage came to 0.04.

Take U9C G19C A24G A26G: the self-cleavage was found to be 0.08.

As to U20A C31U G40U, the self-cleavage is 0.01.

Take G2A G17U G29U: the self-cleavage amounted to 0.19.

As to G2A C10A U43G, the self-cleavage turned out to be 0.16.

Regarding C23A U28A C37U, the self-cleavage worked out at 0.01.

Consider U34G G40C A41U C45A, for which the self-cleavage turned out to be 0.04.

Consider C3U G5A G30A G40U C42U, for which the self-cleavage stood at 0.14.

Turning to A26G U34G G40U, the self-cleavage came to 0.01.

Take G1C U9C G40A: the self-cleavage was found to be 0.01.

Consider A11G G22A G29C, for which the self-cleavage stood at 0.01.

For the variant C3U A12G C15G C37G, the self-cleavage is 0.41.

Consider A6G G17A C46A, for which the self-cleavage was 0.02.

Take G2A C8A C15U U20A G29A A39G: the self-cleavage turned out to be 1.06.

In the case of C8A U9A C23A U38G, the self-cleavage was found to be 0.03.

Consider U9C G22U A26G G40A G44C, for which the self-cleavage was determined as 0.

As to G17A G22C U43A, the self-cleavage was determined as 0.06.

As for A6G C10U G22A, the self-cleavage was 0.06.

As for C15U G29A G40U C42A, the self-cleavage was found to be 0.04.

On to A25U U34C C42A U43G, for which the self-cleavage amounted to 0.03.

For the variant A6U C18G G19C C23G A25G, the self-cleavage amounted to 1.48.

On to A11U A14G A39U, for which the self-cleavage worked out at 0.07.

Take A12G G19A A41G: the self-cleavage is 0.02.

As to C13G G19U G30A A41G, the self-cleavage amounted to 0.04.

With A14U C15A U20C G27A G29U G33U, the self-cleavage was 0.09.

As for C10G C13A G33U A41C C42U, the self-cleavage amounted to 0.01.

On to G1U G7C A26C G40A C46A, for which the self-cleavage was 0.07.

For C3A C13U G21U, the self-cleavage turned out to be 2.61.

As for A11C C15A G29A G36C, the self-cleavage amounted to 0.01.

As to C13G C18G G22A A39G, the self-cleavage was 0.02.

For A6G G19C C31U G40U, the self-cleavage stood at 0.04.

In the case of G27U C42U C45A, the self-cleavage stood at 0.14.

With C13G G30C U32A U34A C42U, the self-cleavage came out at 0.02.

As for A12U C15G U38G, the self-cleavage is 0.

In the case of A24U G36U U43G, the self-cleavage is 0.

Consider G2A A26C U43G, for which the self-cleavage came out at 0.31.

Regarding G5C U32C G44U, the self-cleavage amounted to 0.03.

In the case of G1C C8A G29U G30C G44U, the self-cleavage is 0.02.

As for A4G G7A G33U C46G, the self-cleavage amounted to 0.26.

Take G19U G21A C23A G40A: the self-cleavage was 0.03.

Regarding G7A C8G G17U U32G, the self-cleavage amounted to 0.04.

Turning to C3U A6G C18U, the self-cleavage came out at 0.04.

Take G17U G21U U34A G40A U43C: the self-cleavage is 0.02.

Turning to C8A C10A A11C, the self-cleavage was determined as 0.06.

Consider A6U C18G U28C C46A, for which the self-cleavage is 0.52.

Regarding G33A U38A G40A, the self-cleavage was 0.04.

Take G29U C31A U32G G33A: the self-cleavage came out at 0.06.

Regarding C8U A11C U32A G36C, the self-cleavage was determined as 0.01.

On to G17U C18U U43C, for which the self-cleavage was 0.13.

Turning to G1A G27C U32G G35U A39G, the self-cleavage is 0.12.

Take A6U C8G U20A A26C: the self-cleavage came out at 0.03.

For G17C C31G G35C, the self-cleavage was found to be 0.04.

In the case of U9A C10U G27U, the self-cleavage turned out to be 0.07.

For the variant A12C U43A C46A, the self-cleavage came to 0.01.

For C10G G36U A41C, the self-cleavage came out at 0.05.

In the case of C8G U20A G30C U34G A39U, the self-cleavage is 0.

Consider C3U C18U A25C, for which the self-cleavage came to 0.22.

With C10A C23U A39U, the self-cleavage worked out at 0.33.

Regarding A6U C23A G36U C45G, the self-cleavage came out at 0.23.

As to G2U A12C G36U, the self-cleavage came out at 0.04.

As for G5A U9G A14G G30A G44A, the self-cleavage is 0.02.

With G1C C15G G17U, the self-cleavage worked out at 0.01.

Take C10U G21C A39G: the self-cleavage is 0.11.
